In the supplement of paper PMC12217912:
Some of the results follow. Sequences were assembled here from the parent chain. Values near 0.05 are background.

B1: TEV protease; numbered along this chain (parent)
chain: MGESLFKGPRDYNPISSSICHLTNESDGHTTSLYGIGFGPFIITNKHLFRRNNGTLVVQSLHGVFKVKDTTTLQQHLVDGRDMIIIRMPKDFPPFPQKLKFREPQREERICLVTTNFQTKSMSSMVSDTSCTFPSGDGIFWKHWIQTKDGQCGSPLVSTRDGFIVGIHSASNFTNTNNYFTSVPKNFMELLTNQEAQQWVSGWRLNADSVLWGGHKVFMVKPEEPFQPVKEATQL

Variants of: B1
Assay: raw area under fraction-flipped curve 0-4 h after induction (AUC4h, not background-subtracted), DNA-recorder readout of cleavage of the substrate (dimensionless); higher = more cleavage of the substrate by the protease variant
Conditions: temperature: 34 °C; time window: 0-4 h after rhamnose induction
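Further: Bxb1 expression induced with 0.2% (w/v) L-rhamnose at OD600 near 0.5, cultures sampled hourly, flipped fraction per protease–substrate barcode pair counted by paired-end Illumina sequencing.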

Variant: MGESLFKGPRDYNPISSSICHLTNESDGHTTSLYGIGFGPFIITNKHEFRRNNGTLVVQSLHGVFKVKDTTTLQQHLVDGRDMIIIRMPKDFPPFPQKLKFREPQREERICLVTTNFQTKSMSSMVSDTSCTFPSGDGIFWKHWIQTKDGQCGSPLVSTRDGFIVGIHSASNFTNTNNYFTSVPKNFMELLTNQEAQQWVSGWRLNADSVLWGGHKVFMVKPEEPFQPVKEATQL [L48E]
- area with substrate ENLDFQS: 0.0667
- area with substrate ENLFFQS: 0.0873
- area with substrate ENLGFQS: 0.0615
- area with substrate ENLHFQS: 0.0576
- area with substrate ENLIFQS: 0.0707
- area with substrate ENLKFQS: 0.0593
- area with substrate ENLLFQS: 0.0753
- area with substrate ENLNFQS: 0.0653
- area with substrate ENLPFQS: 0.0581
- area with substrate ENLQFQS: 0.0487
- area with substrate ENLSFQS: 0.0478
- area with substrate ENLWFQS: 0.0789

Variant: MGESLFKGPRDYNPISSSICHLTNESDGHTTSLYGIGFGCFIITNKHLFRRNNGTLVVQSLHGVFKVKDTTTLQQHLVDGRDMIIIRMPKDFPPFPQKLKFREPQREERICLVTTNFQTKSMSSMVSDTSCTFPSGDGIFWKHWIQTKDGQCGSPLVSTRDGFIVGIHSASNFTNTNNYFTSVPKNFMELLTNQEAQQWVSGWRLNADSVLWGGHKVFMVKPEEPFQPVKEATQL [P40C]
- area with substrate ENLDFQS: 0.063
- area with substrate ENLEFQS: 0.0697
- area with substrate ENLFFQS: 0.0859
- area with substrate ENLGFQS: 0.0665
- area with substrate ENLHFQS: 0.08
- area with substrate ENLIFQS: 0.0866
- area with substrate ENLKFQS: 0.0807
- area with substrate ENLNFQS: 0.0512
- area with substrate ENLPFQS: 0.063
- area with substrate ENLRFQS: 0.0719
- area with substrate ENLVFQS: 0.106

Variant: MGESLFKAPRDYNPISSSICHLTNESDGHTTSLYGIGFGPFIITNKHLFRRNNGTLVVQSLHGVFKVKDTTTLQQHLVDGRDMIIIRMPKDFPPFPQKLKFREPQREERICLVTTNFQTKSMSSMVSDTSCTFPSGDGIFWKHWIQTKDGQCGSPLVSTRDGFIVGIHSASNFTNTNNYFTSVPKNFMELLTNQEAQQWVSGWRLNADSVLWGGHKVFMVKPEEPFQPVKEATQL [G8A]
- area with substrate ENLDFQS: 0.0446
- area with substrate ENLEFQS: 0.0593
- area with substrate ENLFFQS: 0.0821
- area with substrate ENLKFQS: 0.0915

Variant: MGESLFKGPRDYNPISSSICHLTNESDGHTTSLYGIGFGPFIITNKHLFRRNNGTLVVQSLHGVFKVKDTTTLQQHLVDGRDMIIIRMPKDFPPFPQKLKFREPQREERICLVTTNFQTKSMSSMVSDTSCTFPSGDGIFWKHWIQTKDGQCGSPLVSTRDGFIVGIHSASNFTNTNNYFTSVPKNFMELLTNQEAQQWVSGWRLNADSVLWGGHKVFMVKPEEPFQPVKEWTQL [A232W]
- area with substrate ENLCFQS: 0.0766
- area with substrate ENLDFQS: 0.0772
- area with substrate ENLEFQS: 0.0621
- area with substrate ENLHFQS: 0.0659
- area with substrate ENLKFQS: 0.0799
- area with substrate ENLLFQS: 0.0836
- area with substrate ENLNFQS: 0.0727
- area with substrate ENLPFQS: 0.0703
- area with substrate ENLRFQS: 0.067
- area with substrate ENLSFQS: 0.0546

Variant: MGESLFKGPRDYNPISSSRCHLTNESDGHTTSLYGIGFGPFIITNKHLFRRNNGTLVVQSLHGVFKVKDTTTLQQHLVDGRDMIIIRMPKDFPPFPQKLKFREPQREERICLVTTNFQTKSMSSMVSDTSCTFPSGDGIFWKHWIQTKDGQCGSPLVSTRDGFIVGIHSASNFTNTNNYFTSVPKNFMELLTNQEAQQWVSGWRLNADSVLWGGHKVFMVKPEEPFQPVKEATQL [I19R]
- area with substrate ENLDFQS: 0.0581
- area with substrate ENLEFQS: 0.0561
- area with substrate ENLFFQS: 0.0578
- area with substrate ENLHFQS: 0.0594
- area with substrate ENLIFQS: 0.0509
- area with substrate ENLKFQS: 0.0516
- area with substrate ENLLFQS: 0.0456
- area with substrate ENLMFQS: 0.0649
- area with substrate ENLNFQS: 0.0585
- area with substrate ENLPFQS: 0.0511
- area with substrate ENLRFQS: 0.0529
- area with substrate ENLSFQS: 0.0589
- area with substrate ENLTFQS: 0.0397
- area with substrate ENLVFQS: 0.0489
- area with substrate ENLWFQS: 0.037

Variant: MGESLFKGPRDYNPISSSICHLTNESDGHTTILYGIGFGPFIITNKHLFRRNNGTLVVQSLHGVFKVKDTTTLQQHLVDGRDMIIIRMPKDFPPFPQKLKFREPQREERICLVTTNFQTKSMSSMVSDTSCTFPSGDGIFWKHWIQTKDGQCGSPLVSTRDGFIVGIHSASNFTNTNNYFTSVPKNFMELLTNQEAQQWVSGWRLNADSVLWGGHKVFMVKPEEPFQPVKEATQL [S32I]
- area with substrate ENLDFQS: 0.0651
- area with substrate ENLEFQS: 0.0308
- area with substrate ENLFFQS: 0.0736
- area with substrate ENLGFQS: 0.0494
- area with substrate ENLHFQS: 0.0733
- area with substrate ENLIFQS: 0.0764
- area with substrate ENLKFQS: 0.0705
- area with substrate ENLNFQS: 0.0625
- area with substrate ENLPFQS: 0.0869
- area with substrate ENLQFQS: 0.0583
- area with substrate ENLRFQS: 0.0729
- area with substrate ENLSFQS: 0.0455

Variant: MGESLFKGPRDYNPISSSICHLTNESDGHTTQLYGIGFGPFIITNKHLFRRNNGTLVVQSLHGVFKVKDTTTLQQHLVDGRDMIIIRMPKDFPPFPQKLKFREPQREERICLVTTNFQTKSMSSMVSDTSCTFPSGDGIFWKHWIQTKDGQCGSPLVSTRDGFIVGIHSASNFTNTNNYFTSVPKNFMELLTNQEAQQWVSGWRLNADSVLWGGHKVFMVKPEEPFQPVKEATQL [S32Q]
- area with substrate ENLDFQS: 0.0422
- area with substrate ENLEFQS: 0.0678
- area with substrate ENLFFQS: 0.088
- area with substrate ENLHFQS: 0.0746
- area with substrate ENLKFQS: 0.0941
- area with substrate ENLLFQS: 0.0665
- area with substrate ENLNFQS: 0.0691
- area with substrate ENLPFQS: 0.0705
- area with substrate ENLQFQS: 0.112
- area with substrate ENLRFQS: 0.0767
- area with substrate ENLSFQS: 0.0722
- area with substrate ENLWFQS: 0.0732

Variant: MGESLFKGPRDYNPISSSICHLTNESDGHTTSLYGIGFGPFIIFNKHLFRRNNGTLVVQSLHGVFKVKDTTTLQQHLVDGRDMIIIRMPKDFPPFPQKLKFREPQREERICLVTTNFQTKSMSSMVSDTSCTFPSGDGIFWKHWIQTKDGQCGSPLVSTRDGFIVGIHSASNFTNTNNYFTSVPKNFMELLTNQEAQQWVSGWRLNADSVLWGGHKVFMVKPEEPFQPVKEATQL [T44F]
- area with substrate ENLDFQS: 0.0508
- area with substrate ENLEFQS: 0.0403
- area with substrate ENLFFQS: 0.0619
- area with substrate ENLGFQS: 0.048
- area with substrate ENLHFQS: 0.0585
- area with substrate ENLKFQS: 0.0828
- area with substrate ENLLFQS: 0.0582
- area with substrate ENLNFQS: 0.0423
- area with substrate ENLPFQS: 0.0481
- area with substrate ENLQFQS: 0.053
- area with substrate ENLRFQS: 0.0238
- area with substrate ENLSFQS: 0.0613
- area with substrate ENLVFQS: 0.0583
- area with substrate ENLWFQS: 0.0531

Variant: MGESLFKGPRDYNPIESSICHLTNESDGHTTSLYGIGFGPFIITNKHLFRRNNGTLVVQSLHGVFKVKDTTTLQQHLVDGRDMIIIRMPKDFPPFPQKLKFREPQREERICLVTTNFQTKSMSSMVSDTSCTFPSGDGIFWKHWIQTKDGQCGSPLVSTRDGFIVGIHSASNFTNTNNYFTSVPKNFMELLTNQEAQQWVSGWRLNADSVLWGGHKVFMVKPEEPFQPVKEATQL [S16E]
- area with substrate ENLDFQS: 0.0617
- area with substrate ENLFFQS: 0.07
- area with substrate ENLHFQS: 0.0705
- area with substrate ENLIFQS: 0.0829
- area with substrate ENLKFQS: 0.059
- area with substrate ENLLFQS: 0.0688
- area with substrate ENLNFQS: 0.0676
- area with substrate ENLPFQS: 0.0647
- area with substrate ENLQFQS: 0.0821
- area with substrate ENLRFQS: 0.0716
- area with substrate ENLSFQS: 0.0618
- area with substrate ENLWFQS: 0.0709

Variant: MGESLFKGPRDYNPIGSSICHLTNESDGHTTSLYGIGFGPFIITNKHLFRRNNGTLVVQSLHGVFKVKDTTTLQQHLVDGRDMIIIRMPKDFPPFPQKLKFREPQREERICLVTTNFQTKSMSSMVSDTSCTFPSGDGIFWKHWIQTKDGQCGSPLVSTRDGFIVGIHSASNFTNTNNYFTSVPKNFMELLTNQEAQQWVSGWRLNADSVLWGGHKVFMVKPEEPFQPVKEATQL [S16G]
- area with substrate ENLDFQS: 0.0689
- area with substrate ENLEFQS: 0.0281
- area with substrate ENLFFQS: 0.0811
- area with substrate ENLHFQS: 0.0779
- area with substrate ENLKFQS: 0.0887
- area with substrate ENLMFQS: 0.0642
- area with substrate ENLNFQS: 0.0664
- area with substrate ENLSFQS: 0.0583
- area with substrate ENLVFQS: 0.0814
- area with substrate ENLWFQS: 0.0598
